This is one part of the list. The full chains were built here from the parent and the listed change. Values near 0.05 are background.
B1: TEV protease; numbered along this chain (parent)
chain: MGESLFKGPRDYNPISSSICHLTNESDGHTTSLYGIGFGPFIITNKHLFRRNNGTLVVQSLHGVFKVKDTTTLQQHLVDGRDMIIIRMPKDFPPFPQKLKFREPQREERICLVTTNFQTKSMSSMVSDTSCTFPSGDGIFWKHWIQTKDGQCGSPLVSTRDGFIVGIHSASNFTNTNNYFTSVPKNFMELLTNQEAQQWVSGWRLNADSVLWGGHKVFMVKPEEPFQPVKEATQL
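Further: Bxb1 expression induced with 0.2% (w/v) L-rhamnose at OD600 near 0.5, cultures sampled hourly, flipped fraction per protease–substrate barcode pair counted by paired-end Illumina sequencing.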

Variants of: B1
Assay: raw area under fraction-flipped curve 0-4 h after induction (AUC4h, not background-subtracted), DNA-recorder readout of cleavage of the substrate (dimensionless); higher = more cleavage of the substrate by the protease variant
Details: temperature: 34 °C; time window: 0-4 h after rhamnose induction
With MGESLFKGPRDYNPISSSICHLTNESDGHTTSLYGIGFGPFIITNKHLFRRNNGTLVVQSLHGVFKVKDTTTLQQHLVYGRDMIIIRMPKDFPPFPQKLKFREPQREERICLVTTNFQTKSMSSMVSDTSCTFPSGDGIFWKHWIQTKDGQCGSPLVSTRDGFIVGIHSASNFTNTNNYFTSVPKNFMELLTNQEAQQWVSGWRLNADSVLWGGHKVFMVKPEEPFQPVKEATQL [D79Y] the “area with substrate ENFYFQS” value was 0.0522, the “area with substrate ENHYFQS” value was 0.0519 and the “area with substrate ENPYFQS” value was 0.0572. For the same variant, the “area with substrate ENRYFQS” value was 0.0503 and the “area with substrate ENVYFQS” value was 0.0679. For MGESLFKGPRDYNPISSSICHLTNESDGHTTSLYGIGFGPFIITNKHLFRRNNGTLVVQSLHGVFKVKDTTTLQQHLVCGRDMIIIRMPKDFPPFPQKLKFREPQREERICLVTTNFQTKSMSSMVSDTSCTFPSGDGIFWKHWIQTKDGQCGSPLVSTRDGFIVGIHSASNFTNTNNYFTSVPKNFMELLTNQEAQQWVSGWRLNADSVLWGGHKVFMVKPEEPFQPVKEATQL [D79C], the “area with substrate ENEYFQS” value was 0.0587, the “area with substrate ENFYFQS” value was 0.0482 and the “area with substrate ENKYFQS” value was 0.0549. For the same variant, the “area with substrate ENNYFQS” value was 0.0634 and the “area with substrate ENVYFQS” value was 0.0859. For MGESLFKGPRDYNPISSSICHLTNESDGHTTSLYGIGFGPFIITNKHLFRRNNGTLVVQSLHGVFKVKDTTTLQQHLVDGRDMIIIRMPKDFPPFPQKLKFREPQREERICLVTTNFQTKSMSSMVSDTSCTFPSGDGIFWKHWIQTKDGQCGSPLVSTRDGFIVGIHSASNFTNTNNYFTSVPKNFMELLTNQEAQQWVSGWRLNADSVLWGGHKVFMVKPEEPFHPVKEATQL [Q227H], the “area with substrate ENEYFQS” value was 0.0608, the “area with substrate ENFYFQS” value was 0.0439 and the “area with substrate ENGYFQS” value was 0.0755. The “area with substrate ENKYFQS” value was 0.0589, the “area with substrate ENQYFQS” value was 0.059 and the “area with substrate ENSYFQS” value was 0.0623. With MGESLFKGPRDYNPISSSICHLTNESDGHTTSLYGIGFGPFIITNKHLFRRNNGTLVVQSLHGVFKVKDTTTLQQHLVDGRSMIIIRMPKDFPPFPQKLKFREPQREERICLVTTNFQTKSMSSMVSDTSCTFPSGDGIFWKHWIQTKDGQCGSPLVSTRDGFIVGIHSASNFTNTNNYFTSVPKNFMELLTNQEAQQWVSGWRLNADSVLWGGHKVFMVKPEEPFQPVKEATQL [D82S] the “area with substrate ENFYFQS” value was 0.063, the “area with substrate ENGYFQS” value was 0.0623 and the “area with substrate ENHYFQS” value was 0.0468. The “area with substrate ENSYFQS” value was 0.0686 and the “area with substrate ENTYFQS” value was 0.0535. In the case of MGESLFKGPRDYNPISSSICHLTNESDGHTTSLYGIGFGPFIITNKHLFRRNNGTLVVQSLHGVFKVKATTTLQQHLVDGRDMIIIRMPKDFPPFPQKLKFREPQREERICLVTTNFQTKSMSSMVSDTSCTFPSGDGIFWKHWIQTKDGQCGSPLVSTRDGFIVGIHSASNFTNTNNYFTSVPKNFMELLTNQEAQQWVSGWRLNADSVLWGGHKVFMVKPEEPFQPVKEATQL [D69A], the “area with substrate ENEYFQS” value is reported as 0.0662 and the “area with substrate ENTYFQS” value is reported as 0.0547. In the case of MGESLFKGPRDYNPISSSICHLTNESDGHTTSLYGIGFGPFIITNKHLFRRNNGTLVVQSLHGVFKVKDTTTLQQHLVDGRDMIIIRMPKDFPPFPQKLKFREPQREERICLVTTNFQTKSMSSMVSDTSLTFPSGDGIFWKHWIQTKDGQCGSPLVSTRDGFIVGIHSASNFTNTNNYFTSVPKNFMELLTNQEAQQWVSGWRLNADSVLWGGHKVFMVKPEEPFQPVKEATQL [C131L], the “area with substrate ENEYFQS” value is reported as 0.0592 and the “area with substrate ENMYFQS” value is reported as 0.0593. With MGESLFKGPRDYNPISSSICHLTNESDGHTTSLYGIGFGPFIITNKHLFRRNNGTLVVQSLHGVFKVKDTTTLQQHLVDGRDMIIIRMPKDFPPFPQKLKFREPQREERICLVTTNFQTKSMSSMVSDTSCTFPSGDGIFWKHWIQTKDGQCGSPLTSTRDGFIVGIHSASNFTNTNNYFTSVPKNFMELLTNQEAQQWVSGWRLNADSVLWGGHKVFMVKPEEPFQPVKEATQL [V157T] the “area with substrate ENGYFQS” value was 0.0562, the “area with substrate ENHYFQS” value was 0.062 and the “area with substrate ENQYFQS” value was 0.0498. For the same variant, the “area with substrate ENSYFQS” value was 0.0947. In the case of MGESLFKGPRDYNPISSSICHLTNESDGHTTSLYGIGFGPFIITNKHLFRRNNGTLVVQSLHGVFKVKDTTTLQQHLVDGRDMIIIRMPKDFPPFPQKLKFREPQREERICLVTTNFQTKSMSSMVSDTSCTFPSGDGIFWKHWIQTKDGQCGSPLVSTRDGFIVGIHSASNFTNTNNYFTSVPKNKMELLTNQEAQQWVSGWRLNADSVLWGGHKVFMVKPEEPFQPVKEATQL [F187K], the “area with substrate ENEYFQS” value is reported as 0.0583, the “area with substrate ENGYFQS” value is reported as 0.0427 and the “area with substrate ENKYFQS” value is reported as 0.0512. The “area with substrate ENMYFQS” value was 0.0531, the “area with substrate ENPYFQS” value was 0.0402 and the “area with substrate ENQYFQS” value was 0.0507. The “area with substrate ENRYFQS” value was 0.0906 and the “area with substrate ENVYFQS” value was 0.0624. With MGESLCKGPRDYNPISSSICHLTNESDGHTTSLYGIGFGPFIITNKHLFRRNNGTLVVQSLHGVFKVKDTTTLQQHLVDGRDMIIIRMPKDFPPFPQKLKFREPQREERICLVTTNFQTKSMSSMVSDTSCTFPSGDGIFWKHWIQTKDGQCGSPLVSTRDGFIVGIHSASNFTNTNNYFTSVPKNFMELLTNQEAQQWVSGWRLNADSVLWGGHKVFMVKPEEPFQPVKEATQL [F6C] the “area with substrate ENEYFQS” value was 0.0621, the “area with substrate ENHYFQS” value was 0.0588 and the “area with substrate ENNYFQS” value was 0.0545. For the same variant, the “area with substrate ENPYFQS” value was 0.0536 and the “area with substrate ENSYFQS” value was 0.061. In the case of MGESLFKGPRDYNPISSSICHLTNESDGHTTSLYGIGFGPFIITNKHLFRRNNGTLVVQSLHGVFKVKDTTTLQQHLVDGRDMIIIRMPKDFPPFPQKLKFREPQREERICLVTTNFQTKSMSSMVSDTSCTFPSGDGIFWKHWIQTKDGQCGSPLVSTRDGFIVGIHSASNFTNTNNYFTSVPKNFMELLTNQEAQQWVSGWRLNADSVLWGTHKVFMVKPEEPFQPVKEATQL [G214T], the “area with substrate ENEYFQS” value is reported as 0.0611, the “area with substrate ENIYFQS” value is reported as 0.0753 and the “area with substrate ENSYFQS” value is reported as 0.0517. The “area with substrate ENWYFQS” value was 0.0574. In the case of MGESLFKGPRDYNPISSSICHLTNESDGHTTSLYGIGFGPFIITNKHLFRRNNGTLVVQSLHGVFKVKDTTTLQQHLVDGRDMIIIRMPKDFPPFPQKLKFREPQREERICLVTTNFQTKSMSSMVSDTSCTFPSGDGIFWKHWIQTKDGQCGSPLVSTRDGFIVGIHSASNFTNTNNYFTSVPKNFMELLTNQEAQQWVSGWRLNADSVLWGIHKVFMVKPEEPFQPVKEATQL [G214I], the “area with substrate ENFYFQS” value is reported as 0.049 and the “area with substrate ENTYFQS” value is reported as 0.0559. With MGESLFKGPRDYNPISSSICHLTNESDGHTTSLYGIGFGPFIITNKHLFRRNNGTLVVQSLHGVFKVKDTTTLQQHLVDGRDMIIIRMPKDFPPFPQKLKFREPQREERICLVTTNFQTKSMSSMVSDTSCTFPSGDGIFWKHWIQTKDGQCGSPLVSTRDGFIVGIHSASNKTNTNNYFTSVPKNFMELLTNQEAQQWVSGWRLNADSVLWGGHKVFMVKPEEPFQPVKEATQL [F173K] the “area with substrate ENHYFQS” value was 0.0718, the “area with substrate ENIYFQS” value was 0.0704 and the “area with substrate ENNYFQS” value was 0.0846. For the same variant, the “area with substrate ENQYFQS” value was 0.0543. In the case of MGESLFKGPRDYNPISSSICHLTNESDGHTTSLYGIGFGPFIITNKHLFRRNNGTLVVQSLHGVFKVKDTTTLQQHLVDGRDMIIIRMPKDFPPFPQKLKFREPQREERICLVTTNFQTKSMSSMVSDTSCTFPSGDGIFWKHWIQTKDGQCGSPLVSTRDGFIVGIHSASNFTNTNNYFTSVPKNFMELLTNQEAQQWVSGWRLNADSVLWGGHKVFMVKPEEPFQPVKEATQD [L235D], the “area with substrate ENEYFQS” value is reported as 0.0493, the “area with substrate ENFYFQS” value is reported as 0.0709 and the “area with substrate ENGYFQS” value is reported as 0.0674. The “area with substrate ENMYFQS” value was 0.0835, the “area with substrate ENPYFQS” value was 0.0659 and the “area with substrate ENSYFQS” value was 0.075.

Source: the supplement of paper PMC12217912
